The source of these data is the supplement of paper PMC11417369.

The list shows a part of the results.

The assay has as its system PF3D7_0420300 AP2 domain 1 (GST-tagged). Description: gcPBM binding intensity (ln(normalized median fluorescence intensity)); higher = stronger DNA binding. Summed up:
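The binding buffer was 1× PBS containing 1% milk, 0.2 mg/ml BSA, 0.5% salmon testes DNA and 0.03% Triton X-100. In it, GST-tagged P. falciparum DNA-binding domains expressed in E. coli were applied for 1 h to an Agilent 4 × 180k array of primer-extended double-stranded 36-bp intergenic genomic probes plus negative controls. Binding intensity, read with Alexa488 anti-GST antibody and a 488 nm scan, is the highest Masliner-normalised natural-log median intensity across replicate spots of either probe orientation.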
As to “AAAAAAAAAAAAAAAAAAAAAAAAATCACACATTGG [TGCATGCA_negctrl_site412]”, the “gcPBM binding intensity (ln)” value turned out to be 9.41. The result for “TTTTGGATGTATTATACATGCATATTATTATAATAT [TGCATGCA_site997]” reads 8.99; that for “ATATATATATCTAATTGTACATATTTTATAAATAAG [XGTACX_site4840]”, 9.03; that for “AAATACTGATTTGGTTGTACATGTGCACTATATAAC [XGTACX_site3795]”, 9.35. For “AAAAATTAAATGTACACACACCTTAAACAATGTCAT [CACACA_site6958]” the value was 9.66. For “TATAATCTAACATAATGTACATGTATATGCACTTTA [XGTACX_site369]”, the “gcPBM binding intensity (ln)” value turned out to be 9.07. The result for “ATAAATATATTTATATGTACATATAATTTTACATAT [XGTACX_site5440]” reads 9.19. The result for “TTTTTTACAATTAACACACTCAAAAATAATATTAAA [CACACA_site5198]” reads 9.06; that for “AATTTTTTAAATGTGTGTACATATTATTTAAATAAT [XGTACX_site5967]”, 9.31; that for “TATATTATATATATATGTACATATGGCAAAACATTA [XGTACX_site7958]”, 9.33. For “AAAAAAAAAAAAAAATGTACCCATAAAATAAGCATT [XGTACX_site8576]” the value was 9.51; for “AATCACAACGAACACACACACAAAAAAAAAAAAAAA [CACACA_site6790]”, 9.58; for “AAAAAAAATAATTTGCGTACATAAAAATTTATAGGA [XGTACX_site3016]”, 9.19. Regarding “AAATTTTTTTTTGTCATATGATGTTTGAACCCAAAT [CACACA_negctrl_site1659]”, the “gcPBM binding intensity (ln)” value is 9.05. For “TCCGTATATTTATACGCATGCATTATGAACATTGTT [TGCATGCA_site613]” the value was 9.28; for “TTACATTGTAAAAAGTGTACATATAATTTAATTAAT [XGTACX_site1834]”, 9.14; for “GGATTACAAATAGGTTGTACGTTTTTTTTTTTTTCT [XGTACX_site3605]”, 9.38. Turning to “ATGTAGACTGAAACCACACACACATATATATATATA [CACACA_site606]”, the “gcPBM binding intensity (ln)” value is 9.77. For “AATATAAATACTCCTACACACATATAAATATAAATA [CACACA_site7419]” the value was 9.74; for “TCCACATTAATGTAATGTACAAAATTAGAAAATAAA [XGTACX_site6287]”, 9.06. For “TTTTGATTAAGTGAATTTTTTTATTTATATAAATAT [TGCATGCA_negctrl_site479]” the value was 9; for “CATACATACATATATACACACATATATAATAATATA [CACACA_site2678]”, 9.71. The result for “TACGAATTAAAAAAGAGTACAAATAAAATATCTACA [XGTACX_site7412]” reads 9.18; that for “AATTAGCTCAAAGGTTGTACAAATATATTTTAATGG [XGTACX_site2352]”, 9.21. As to “TTTTAAACACCAATCAAAAAAATATAAATATAAATA [TGCATGCA_negctrl_site552]”, the “gcPBM binding intensity (ln)” value came to 9.08. For “AGGGAATAAGTAAGGTGTACATAATTATGTTACTTT [XGTACX_site6152]” the value was 9.36.

“TTTTTTTATTTTATAAAGCAAAAATAAGAATGAAAT [XGTACX_negctrl_site270]”: the “gcPBM binding intensity (ln)” value was determined as 8.92. For “TATATGTATGTATGTACACACAAAAAATGGAATATA [CACACA_site3717]” the value was 9.67; for “TGTTGATTTCTCAAATGTACTTTACTTTTCTTCAGA [XGTACX_site7916]”, 9.08.

With “AATTTATTTTTTTAATGTACATATGGTATAAATATA [XGTACX_site8012]”, the “gcPBM binding intensity (ln)” value came out at 9.16.

As for “TTTTTTTTTTTTAATTGTACATTTTATATAAACTTT [XGTACX_site6806]”, the “gcPBM binding intensity (ln)” value worked out at 9.16. The result for “AATATATATATATGTACACACTCCAATACATATACA [CACACA_site2682]” reads 9.42; that for “TTAAGAATATCTTAGAGTACATTTTATCATCTTAAA [XGTACX_site8298]”, 8.78. Take “TCTTTTTAAATTACTATAATACATTCATAAATTATA [GTGCAC_negctrl_site448]”: the “gcPBM binding intensity (ln)” value was found to be 8.89.

For “TGATTTTTTCATATTCTACACACGTGAACAAATGTG [CACACA_site8987]”, the “gcPBM binding intensity (ln)” value stood at 9.34.

In the case of “TTAATTATTATATAAGTGCAATAATAAAAAGTTGTA [GTGCAC_site9552]”, the “gcPBM binding intensity (ln)” value worked out at 9.18. For “TTGTTAATAAATAAATAAATAAATATATTTATATAT [GTGCAC_negctrl_site271]” the value was 8.89; for “ATATATATTTATATTTGTACGAATTAAAATTTTTTA [XGTACX_site5200]”, 9.04. For “ATTTAAAACAAAAGTAGTACGTCTAATAAATTCAAC [XGTACX_site4344]” the value was 9.25. For “TTATCAATAAAATGCACACACTGTAATATTATTAAA [CACACA_site6055]” the value was 9.37; for “ATAGCTTTTATTTAAAGTACAAAAAGGATGTTGAAA [XGTACX_site3810]”, 9.04. Regarding “AGACAAAATGTTTGAAGTACTTTTTATCAAATTAAA [XGTACX_site8885]”, the “gcPBM binding intensity (ln)” value is 8.94.

As for “AAAAAAAAAAAACACACACACACACCCATACATACA [CACACA_site707]”, the “gcPBM binding intensity (ln)” value came out at 10.2. The result for “CAATTTTTTAAATGCACACAAAAGGAATAAATAAAT [CACACA_site544]” reads 9.46.
